Measured values taken from PMC4336329 (PLoS ONE, 2015).
Out of some 310,000 compounds screened, about 14,000 (4.5%) showed an effect of 50% or more. Effects have a minus sign here. The list shows a part of the results.

These compounds were tested against human ether-à-go-go-related gene (hERG) potassium channel (human, UniProt Q12809) (assay: primary screen, population patch clamp on CHO cells stably expressing hERG).
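Also: peak tail current of the secondary pulse compared with the same well before compound.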

Sequence of human ether-à-go-go-related gene (hERG) potassium channel (Q12809 whole entry, looked up): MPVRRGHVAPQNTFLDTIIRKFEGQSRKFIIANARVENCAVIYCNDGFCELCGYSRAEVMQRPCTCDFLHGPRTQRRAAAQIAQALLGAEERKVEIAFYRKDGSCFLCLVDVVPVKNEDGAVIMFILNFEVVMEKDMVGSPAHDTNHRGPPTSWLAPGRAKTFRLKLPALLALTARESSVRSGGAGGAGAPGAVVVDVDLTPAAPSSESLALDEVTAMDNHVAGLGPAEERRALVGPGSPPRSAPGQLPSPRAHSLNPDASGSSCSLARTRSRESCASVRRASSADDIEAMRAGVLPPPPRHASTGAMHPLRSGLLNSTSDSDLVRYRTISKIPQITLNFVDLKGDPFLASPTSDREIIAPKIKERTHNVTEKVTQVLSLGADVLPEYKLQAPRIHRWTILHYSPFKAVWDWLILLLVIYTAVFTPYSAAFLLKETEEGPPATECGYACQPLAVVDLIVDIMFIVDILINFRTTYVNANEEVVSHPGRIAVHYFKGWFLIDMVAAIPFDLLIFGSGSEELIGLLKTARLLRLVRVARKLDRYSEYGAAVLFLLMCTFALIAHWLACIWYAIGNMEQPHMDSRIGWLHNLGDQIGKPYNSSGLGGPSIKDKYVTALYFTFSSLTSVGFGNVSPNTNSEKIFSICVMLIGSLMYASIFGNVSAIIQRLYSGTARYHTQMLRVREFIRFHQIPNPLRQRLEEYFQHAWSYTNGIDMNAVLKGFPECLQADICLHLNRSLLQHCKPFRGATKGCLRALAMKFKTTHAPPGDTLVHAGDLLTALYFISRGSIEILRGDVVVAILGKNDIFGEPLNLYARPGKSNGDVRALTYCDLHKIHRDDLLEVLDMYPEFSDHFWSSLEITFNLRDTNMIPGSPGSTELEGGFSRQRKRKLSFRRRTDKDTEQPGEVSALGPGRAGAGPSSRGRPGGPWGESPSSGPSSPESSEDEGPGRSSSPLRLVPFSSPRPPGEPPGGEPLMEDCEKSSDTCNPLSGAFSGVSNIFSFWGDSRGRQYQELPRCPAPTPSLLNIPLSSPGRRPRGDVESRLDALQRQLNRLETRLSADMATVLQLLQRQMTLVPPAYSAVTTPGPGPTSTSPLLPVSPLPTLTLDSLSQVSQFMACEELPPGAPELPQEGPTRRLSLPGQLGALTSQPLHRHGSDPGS

| SMILES | hERG current change (%, negative = inhibition) at 10uM |
| --- | --- |
| O=C(COC(=O)c1ccc(O)cc1)Nc1cc(C(F)(F)F)ccc1N1CCOCC1 | -25% |
| Cc1cc(C(=O)NN=C2CCCCC2)c2ccccc2n1 | -4.11% |
| COc1ccc(NC(=O)COc2ccccc2C(=O)NCC(c2ccccc2)N(C)C)cc1Cl (stereo not shown) | -31.2% |
| Cc1ccc(CN2CCCOCCS2(=O)=O)cc1 | 9.35% |
| O=C(NNS(=O)(=O)c1ccc(Cl)cc1)c1cc(-c2ccccc2)n[nH]1 | 3.29% |
| COc1cccc(C2N=C(c3ccccc3C)NO2)c1OC (stereo not shown) | 5.27% |
| Cn1c(SCC(=O)N2c3ccccc3Sc3ccc(Cl)cc32)nnc1-c1ccco1 | -48.9% |
| CCC(C)N=C1Sc2nc3ccc(C)cc3cc2CN1CCOC (stereo not shown) | -79% |
| O=c1oc2ccccc2c(NCc2ccccc2)c1[N+](=O)[O-] | -34% |
| CC(=O)Nc1ccc(N2C(=O)CCC2=O)cc1C | 18% |
| O=C(Nc1nc2ccccc2n1Cc1ccccc1)c1ccc(COc2ccccc2[N+](=O)[O-])o1 | -18.8% |
| Cc1cc(CNC(=O)Nc2ccc3c(c2)OCO3)nn1C | -0.683% |
| CCOC(=O)c1ccc(NC(=O)c2nc[nH]c2C(=O)NCCCNC(=O)c2[nH]cnc2C(=O)Nc2ccc(C(=O)OCC)cc2)cc1 | 14.1% |
| C/C(=N\NC(N)=O)c1c(O)n(C)c(=O)n(C)c1=O | 15.8% |
| CCn1cnc2c1c(=O)[nH]c(=O)n2Cc1ccccc1 | 19% |
| COCC(=O)Nc1ccc(Br)cc1C | 8.8% |
| Cc1ccc(NC(=O)CN2C(=O)C(C)Oc3ccccc32)nc1 (stereo not shown) | 4.98% |
| O=C(CSc1nc2ccc([N+](=O)[O-])cc2[nH]1)NC1CCCCCC1 | -16.6% |
| CCCCNC(=O)c1onc(CSc2ccccc2C)c1C(=O)O | 13.8% |
| FC(F)(F)c1cc(-c2ccco2)nc(NCc2ccc(Cl)cc2)n1 | 6.88% |
| Cc1nc([N+](=O)[O-])cn1Cc1cccc([N+](=O)[O-])c1 | -8.42% |
| CC(C)NC(=O)NC(=O)COC(=O)Cc1c(F)cccc1Cl | -10.8% |

| SMILES | hERG current change (%, negative = inhibition) at 10uM |
| --- | --- |
| COCC(=O)NNC(=S)Nc1cccc(C)c1C | 35.2% |
| CCCC(=O)Nc1ccc2c(c1)nc(CN1CCCC1)n2C | 11.7% |
| Cc1nn(Cc2noc(C(=O)NCc3ccccn3)n2)c(C)c1Br | -14.5% |
| CCc1ccc2c(c1)c1nc(C)sc1n2CC(=O)OC | 9.3% |
| Cc1ccc(CNC(=O)CSc2ccc(-c3cccs3)nn2)cc1 | 4.35% |
| CC(C)NS(=O)(=O)c1ccc(CCC(=O)N2CCCC2)cc1 | 11.1% |
| CN1/C(=C/C(=O)C2CC2)C(C)(C)c2ccccc21 | 15.7% |
| Cc1ccc(NC(=O)c2ccc(OCC3CCCO3)cc2)c(C)c1 (stereo not shown) | -9.65% |
| COc1ccc(CCN2C(=S)N(c3ccc(Cl)cc3)C(=O)C2CC(N)=O)cc1OC (stereo not shown) | 16% |
| CCn1c(SCC(=O)O)nnc1-c1cc2c(C)nn(-c3ccccc3)c2s1 | -0.708% |
| O=c1ccc(NS(=O)(=O)c2ccccc2)cn1Cc1ccc(Cl)c(Cl)c1 | -11.8% |
| CCOC(=O)[C@H]1[C@H]2COc3ccc(Br)cc3[C@@H]2N2C(=O)CN(Cc3ccco3)C(=O)[C@@]12C | -38.7% |
| COc1ccc2c(c1)[C@H]1[C@H](CO2)[C@H](c2ccccc2)[C@]2(C)C(=O)N[C@@H](C)C(=O)N12 | 1.7% |
| COc1ccccc1NC(=O)COc1ccc(/C=N/NS(=O)(=O)c2ccc(C)cc2)cc1 | 20.1% |
| CCCn1c(=S)[nH]c2cc(C(=O)N3CCCC(C(=O)OCC)C3)ccc2c1=O (stereo not shown) | 5.19% |
| Cc1ccccc1OCCCn1cc(C(=O)C(=O)N2CCOCC2)c2ccccc21 | -10.6% |
| O=C(Nc1cccnc1)c1ccc(NC(=O)c2ccco2)cc1 | 4.84% |
| O=C1CSC(=S)N1/N=C/c1cc(Br)c(O)c(Br)c1 | 25.3% |
| O=C(c1ccc(Nc2cccc(C(F)(F)F)c2)nc1)N1CCCC1 | -20.3% |
| Cc1ccc(NC(=O)CN2C(=O)C3C4C=CC(C4)C3C2=O)cc1 (stereo not shown) | 10.7% |
| C#CCOc1ccc(/C=C2/C(=O)NN(c3ccc(F)cc3)C2=O)cc1OC | 2.13% |
